# Measured values taken from publication PMC5700166.
# Only a part is listed here, and it is no random draw. The list includes weakly bound sequences.
# Experiments:
# Assay in all cases: protein-binding microarray (PBM)
# Details in all cases: PBM: ~300 nM protein, 6 mM HEPES pH 7.8, 80 mM KCl, 0.5 mM EDTA, 0.5 mM EGTA, 6% glycerol, 35 ng/ul poly-dIdC, 1% milk, 1 h, room temperature; Ap Aiptasia and Nv Nematostella (sea anemones) / Co Capsaspora / Aq Amphimedon (sponge) / Dm Drosophila / Hu human; RHD is the Rel homology domain; high values mean tight binding; most listed sequences are background and not binding sites; double strand, one strand shown
# [1] = biological target: T1, GST-Nv-NF-kB (Cys allele) (UniProt E5G601)
# T1 sequence: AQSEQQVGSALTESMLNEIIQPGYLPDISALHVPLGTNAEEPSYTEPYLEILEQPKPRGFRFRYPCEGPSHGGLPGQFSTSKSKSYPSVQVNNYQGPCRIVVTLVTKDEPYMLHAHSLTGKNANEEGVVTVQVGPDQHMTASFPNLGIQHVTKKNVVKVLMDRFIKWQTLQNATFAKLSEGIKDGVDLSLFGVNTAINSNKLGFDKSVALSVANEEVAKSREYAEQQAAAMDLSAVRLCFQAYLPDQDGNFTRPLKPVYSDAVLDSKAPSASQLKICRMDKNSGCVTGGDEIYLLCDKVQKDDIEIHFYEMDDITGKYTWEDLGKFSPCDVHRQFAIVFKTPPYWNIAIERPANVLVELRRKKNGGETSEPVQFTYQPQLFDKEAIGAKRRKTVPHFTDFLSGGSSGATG
# GST-Dm-Relish = biological target: T2, GST-Dm-Relish (UniProt Q94527)
# T2 sequence: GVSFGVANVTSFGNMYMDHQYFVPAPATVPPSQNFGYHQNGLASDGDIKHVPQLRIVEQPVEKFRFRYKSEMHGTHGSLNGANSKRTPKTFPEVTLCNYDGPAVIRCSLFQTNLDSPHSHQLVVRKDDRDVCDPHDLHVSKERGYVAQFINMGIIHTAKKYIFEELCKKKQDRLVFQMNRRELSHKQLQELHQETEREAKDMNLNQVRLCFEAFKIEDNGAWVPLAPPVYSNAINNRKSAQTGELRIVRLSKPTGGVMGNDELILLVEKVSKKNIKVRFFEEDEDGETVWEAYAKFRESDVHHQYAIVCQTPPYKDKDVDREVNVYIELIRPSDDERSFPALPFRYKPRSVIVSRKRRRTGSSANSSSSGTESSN
# GST-Aq-NF-kB = biological target: T3, GST-Aq-NF-kB (UniProt A9Y5G7)
# T3 sequence: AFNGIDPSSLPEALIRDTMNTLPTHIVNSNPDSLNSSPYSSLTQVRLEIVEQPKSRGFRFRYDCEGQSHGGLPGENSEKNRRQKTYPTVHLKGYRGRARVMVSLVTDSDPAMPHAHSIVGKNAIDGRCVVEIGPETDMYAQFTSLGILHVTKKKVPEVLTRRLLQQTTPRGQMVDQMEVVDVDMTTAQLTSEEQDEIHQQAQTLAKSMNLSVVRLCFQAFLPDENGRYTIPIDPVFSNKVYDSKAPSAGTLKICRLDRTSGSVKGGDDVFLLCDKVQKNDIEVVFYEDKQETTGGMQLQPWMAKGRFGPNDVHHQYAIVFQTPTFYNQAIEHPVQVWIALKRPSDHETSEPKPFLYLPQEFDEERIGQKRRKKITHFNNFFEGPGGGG
# GST-Co-NF-kB = biological target: T4, GST-Co-NF-kB (UniProt F1ARL5)
# T4 sequence: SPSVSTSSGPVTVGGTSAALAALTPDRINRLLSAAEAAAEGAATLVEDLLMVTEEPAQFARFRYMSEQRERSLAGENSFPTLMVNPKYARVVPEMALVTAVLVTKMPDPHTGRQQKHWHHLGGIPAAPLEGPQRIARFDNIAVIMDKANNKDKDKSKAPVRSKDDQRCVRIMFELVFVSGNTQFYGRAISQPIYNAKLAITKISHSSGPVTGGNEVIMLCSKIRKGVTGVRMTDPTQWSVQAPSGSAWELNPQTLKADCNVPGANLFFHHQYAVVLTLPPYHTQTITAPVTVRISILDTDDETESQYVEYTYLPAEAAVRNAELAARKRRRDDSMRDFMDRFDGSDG
Sequence,binding signal [1] [z-score],binding signal (GST-Dm-Relish) [z-score],binding signal (GST-Aq-NF-kB) [z-score],binding signal (GST-Co-NF-kB) [z-score]
CCGATTAACATCAGGGGATATACTGATGTTAATCGGGTCTTGATTCGCTTGACGCTGCTG,4.91,7.81,4.48,
CCGATTAACATCAGCCCCGGTGTTGATGTTAATCGGGTCTTGATTCGCTTGACGCTGCTG,0.893,-0.0198,2.37,
CCGATTAACATCAATTAGGTGGGTGATGTTAATCGGGTCTTGATTCGCTTGACGCTGCTG,0.545,0.379,0.896,
CCGATTAACATCAACTTGGGAAATGATGTTAATCGGGTCTTGATTCGCTTGACGCTGCTG,2.47,0.789,1.15,
CCGATTAACATCAAGTTTCCCCCTGATGTTAATCGGGTCTTGATTCGCTTGACGCTGCTG,8.22,4.83,6.51,11.4
CCGATTAACATCAGGGAGTACACTGATGTTAATCGGGTCTTGATTCGCTTGACGCTGCTG,0.904,1.58,1.84,1.03
CCGATTAACATCAGAATTCTCCCTGATGTTAATCGGGTCTTGATTCGCTTGACGCTGCTG,4.1,0.902,4.02,
CCGATTAACATCAGGAATCCCAATGATGTTAATCGGGTCTTGATTCGCTTGACGCTGCTG,0.893,7.14,1.48,0.928
CCGATTAACATCAAGGGGATTTATGATGTTAATCGGGTCTTGATTCGCTTGACGCTGCTG,9.15,8.3,6.25,3.44
CCGATTAACATCAAAAGAGTCCCTGATGTTAATCGGGTCTTGATTCGCTTGACGCTGCTG,5.99,5.32,5.91,1.5
CCGATTAACATCACTAGGCGGGATGATGTTAATCGGGTCTTGATTCGCTTGACGCTGCTG,-0.412,0.046,0.567,
